# Data: publication PMC3493529, “Molecular and Pharmacological Characterization of Serotonin 5-HT2α and 5-HT7 Receptors in the Salivary Glands of the Blowfly Calliphora vicina” (PLoS ONE, 2012)
# pIC50: −log10 of the molar value. Read-outs that look alike come from different tables or passages of the source.
# Legend:
# Cv5-HT2α = Cv5-HT2α (Calliphora vicina, UniProt I7JA47); assay: Inhibition of 5-HT-induced Ca2+ signals in Cv5-HT2α-expressing cells; type: cell-based
# Method: (§1) We applied a previously established protocol to generate cell lines that constitutively expressed either Cv5-HT2α or Cv5-HT7. For Cv5-HT2α expression, human embryonic kidney cells (HEK 293; ECACC, Salisbury, UK) were chosen. […] (flpTM cells, provided by Sibion biosciences GmbH, Jülich, Germany). Approximately 8 µg of the respective expression vectors were introduced into ∼4×10^5 cells by a modified calcium-phosphate method. Stably transfected cells were selected in the presence of the antibiotics Blasticidin (0.1 mg/ml; Cv5-HT2α) or G418 (0.8 mg/ml; Cv5-HT7). Expression of Cv5-HT2α and Cv5-HT7 was monitored by Western blotting with commercially available anti-His antibodies (anti-6x His Epitope Tag; Rockland Immunochemicals Inc, Gilbertsville, USA) and anti-HA antibodies (clone 3F10; Roche, Penzberg, Germany), respectively.
# (§2) The ability of Cv5-HT2α to induce Ca^2+ signals in the transfected cell line was measured with the Ca^2+-sensitive dye Fluo-4. Similarly, Cv5-HT7-induced cAMP production was indirectly monitored by the cAMP-dependent activation of the cyclic nucleotide-gated ion channel in flpTM cells (see above). The cyclic nucleotide-gated ion channel is permeable to Ca^2+ ions and thus an increase in [cAMP]i leads to an influx of Ca^2+ ions, which can be detected with Fluo-4. Cells were grown in 96-well plates to a density of ∼3×10^4 (Cv5-HT2α) or 1.5×10^4 (Cv5-HT7) and then incubated in extracellular solution (ES in mM: 120 NaCl, 5 KCl, 2 CaCl2, 2 MgCl2, 10 glucose, 10 HEPES, pH 7.4) containing 3 mM probenecid, 0.02% (w/v) Pluronic® F-127 (Sigma) and 2 µM Fluo-4AM (Invitrogen). After 1 h, the loading solution was substituted for dye-free ES. To inhibit cAMP hydrolysis in Cv5-HT7-expressing cells, ES containing 100 µM isobutylmethylxanthine (IBMX) was used. Plates were transferred into a fluorescence reader (FLUOstar Omega; bmg, Offenburg, Germany) and Fluo-4 fluorescence was monitored. The excitation wavelength was 485 nm. Fluorescence emission was detected at 520 nm. Once the basal fluorescence in each well had reached a stable value, various concentrations of the respective ligands were added. The resulting changes in Fluo-4 fluorescence were recorded automatically.
# (§3) Changes in Ca^2+-dependent Fluo-4 signals were registered automatically. Data represent the means±SD of eight replicates. […] Relative fluorescence (%) is normalized to the values obtained with 100 nM 5-HT in the absence of antagonists. […] Relative fluorescence (%) is normalized to the values obtained with 6 nM 5-HT in the absence of antagonists.
# Cv5-HT7 = Cv5-HT7 (Calliphora vicina, UniProt I7IA71); assay: Inhibition of 5-HT-induced Fluo-4 signals in Cv5-HT7-expressing cells; type: cell-based
# Cv5-HT7, sequence (I7IA71 entry or part of it): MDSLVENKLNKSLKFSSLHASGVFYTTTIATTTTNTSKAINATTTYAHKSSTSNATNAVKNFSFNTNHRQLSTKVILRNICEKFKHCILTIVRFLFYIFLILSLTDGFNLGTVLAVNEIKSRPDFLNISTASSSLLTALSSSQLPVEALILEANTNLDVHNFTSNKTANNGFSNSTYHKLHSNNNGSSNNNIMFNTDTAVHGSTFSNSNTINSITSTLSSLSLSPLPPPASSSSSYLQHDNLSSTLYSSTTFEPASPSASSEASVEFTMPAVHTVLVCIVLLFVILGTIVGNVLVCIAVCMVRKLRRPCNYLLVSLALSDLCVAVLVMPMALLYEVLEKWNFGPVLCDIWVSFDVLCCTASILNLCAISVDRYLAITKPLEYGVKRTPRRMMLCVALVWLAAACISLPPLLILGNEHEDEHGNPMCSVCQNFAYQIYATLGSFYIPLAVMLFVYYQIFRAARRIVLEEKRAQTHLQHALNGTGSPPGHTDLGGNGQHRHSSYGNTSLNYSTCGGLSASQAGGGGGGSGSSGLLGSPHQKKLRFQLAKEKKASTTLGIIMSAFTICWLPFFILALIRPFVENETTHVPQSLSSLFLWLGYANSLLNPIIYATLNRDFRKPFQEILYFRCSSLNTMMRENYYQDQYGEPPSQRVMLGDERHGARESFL
# Method: as §1, §2, §3
# [1] = Cv5-HT2α IC50, in the presence of 100 nM 5-HT
# [2] = Cv5-HT2α log IC50, in the presence of 100 nM 5-HT
# [3] = Cv5-HT7 IC50, in the presence of 6 nM 5-HT
# [4] = Cv5-HT7 log IC50, in the presence of 6 nM 5-HT
# Cv5-HT2α, sequence (I7JA47 entry or part of it): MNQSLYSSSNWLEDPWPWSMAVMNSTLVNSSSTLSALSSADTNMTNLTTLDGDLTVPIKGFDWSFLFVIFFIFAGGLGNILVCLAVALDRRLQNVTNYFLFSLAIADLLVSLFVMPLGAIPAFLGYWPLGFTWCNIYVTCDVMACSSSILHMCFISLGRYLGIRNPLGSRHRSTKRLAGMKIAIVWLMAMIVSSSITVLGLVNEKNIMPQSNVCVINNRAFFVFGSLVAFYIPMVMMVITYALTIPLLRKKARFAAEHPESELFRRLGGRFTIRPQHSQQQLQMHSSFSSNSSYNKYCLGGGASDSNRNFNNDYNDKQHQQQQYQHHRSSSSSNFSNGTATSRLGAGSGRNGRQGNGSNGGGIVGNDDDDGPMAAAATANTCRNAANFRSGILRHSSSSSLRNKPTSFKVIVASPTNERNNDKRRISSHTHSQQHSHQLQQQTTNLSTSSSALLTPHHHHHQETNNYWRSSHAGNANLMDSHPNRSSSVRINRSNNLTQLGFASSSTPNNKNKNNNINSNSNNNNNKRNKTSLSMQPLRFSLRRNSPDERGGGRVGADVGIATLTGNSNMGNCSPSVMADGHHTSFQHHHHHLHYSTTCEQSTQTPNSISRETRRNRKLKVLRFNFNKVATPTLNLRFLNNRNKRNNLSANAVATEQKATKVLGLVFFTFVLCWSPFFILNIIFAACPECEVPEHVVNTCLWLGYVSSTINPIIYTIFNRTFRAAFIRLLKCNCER
Compound,pIC50 (Cv5-HT2α; [1]),pIC50 (Cv5-HT2α; [2]),pIC50 (Cv5-HT7; [3]),pIC50 (Cv5-HT7; [4]),"pIC50 (Cv5-HT2α; in the presence of 100 nM 5-HT, read-out: Cv5-HT2α IC50)","IC50 (Cv5-HT2α; in the presence of 100 nM 5-HT, read-out: Cv5-HT2α log IC50 (converted)) [nM]","pIC50 (Cv5-HT7; in the presence of 6 nM 5-HT, read-out: Cv5-HT7 IC50)","IC50 (Cv5-HT7; in the presence of 6 nM 5-HT, read-out: Cv5-HT7 log IC50 (converted)) [nM]"
CN1CCC(=C2c3ccccc3C=Cc3ccccc32)CC1 [cyproheptadine],5.80,5.80,7.14,7.14,–,–,–,–
CN1CCN2c3ccccc3Cc3ccccc3C2C1 (stereo not drawn) [mianserin],–,–,–,–,6.14,724,7.17,67.6
CN1CCN(C2=Nc3cc(Cl)ccc3Nc3ccccc32)CC1 [clozapine],4.82,4.82,7.10,7.10,–,–,–,–
